The list shows a part of the results. Repeats are few or missing, and single values can be far off.
Experiments:
Test in all cases: cell count relative to DMSO control; melanoma cells; higher = more viable cells
Details in all cases: library dose: standard library concentration; 72 h
[1] = system: G361
[2] = system: IPC-298
[3] = system: IST-MEL1
[4] = system: LB2518-MEL
[5] = system: LOXIMVI
[6] = system: MEL-HO
[7] = system: MZ2-MEL
[8] = system: MeWo
[9] = system: RPMI7951
[10] = system: RVH-421
[11] = system: SkMel28
[12] = system: SkMel2
[13] = system: SkMel30
[14] = system: SkMel5
[15] = system: UACC257
[16] = system: UACC62
[17] = system: WM115
[18] = system: WM1716
[19] = system: WM3526
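Further: cells treated in 1,536-well plates, then fixed and DAPI-stained, with nuclei counted from automated high-throughput microscope images.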

Row | Compound | cell count [1] [%] | cell count [2] [%] | cell count [3] [%] | cell count [4] [%] | cell count [5] [%] | cell count [6] [%] | cell count [7] [%] | cell count [8] [%] | cell count [9] [%] | cell count [10] [%] | cell count [11] [%] | cell count [12] [%] | cell count [13] [%] | cell count [14] [%] | cell count [15] [%] | cell count [16] [%] | cell count [17] [%] | cell count [18] [%] | cell count [19] [%]
1 | O=C(O)[C@@H]1[O][Sb](=[O])([O][Sb]2(=[O])[O][C@H]([C@H](O)CO)[C@H](O)[C@H](C(=O)O)[O]2)[O][C@H]([C@H](O)CO)[C@@H]1O (stereo partly drawn) [stibogluconate] + Oc1nc(-c2ccc(C(F)(F)F)cc2)nc2c1CSCC2 [XAV939] (first compound 10 µM, partner dose 10 µM) | 93 | 85.4 | 99.6 | 109 | 97.6 | 78.4 | 86 | 109 | 77.9 | 101 | 50.9 | 113 | 94.7 | 53 | 78.1 | 74.9 | 84.2 | 40.3 | 93.8
2 | O=C(O)c1ccc2c(c1)nc(Nc1cccc(Cl)c1)c1ccncc12 + O=c1cc(-c2cccc3c2Sc2ccccc2S3)oc(N2CCOCC2)c1 [KU55933] (first compound 2 µM, partner dose 5 µM) | 51.2 | 73.3 | 79.2 | 105 | 80.6 | 58.7 | 56.7 | 76.3 | 69.7 | 77.1 | 61.8 | 75.1 | 73.5 | 68.3 | 79.8 | 60.1 | 76.7 | 72.9 | 72.8
3 | O=C(Nc1cc(C(F)(F)F)cc(C(F)(F)F)c1)c1cc(Cl)ccc1O + c1cc(-c2cnn3cc(-c4ccc(OCCN5CCCCC5)cc4)cnc23)ccn1 [Dorsomorphin] (first compound 0.08 µM, partner dose 2 µM) | 65.8 | 100 | 94.5 | 94.1 | 123 | 84 | 75.7 | 80.9 | 74.6 | 118 | 91 | 95.4 | 117 | 76.2 | 69.1 | 78.5 | 93.7 | 102 | 91
4 | O=C(O)c1ccc2c(c1)nc(Nc1cccc(Cl)c1)c1ccncc12 + CC(C)CCN1c2nc(Nc3cc(F)c(O)c(F)c3)ncc2N(C)C(=O)C1C [BID1870] (first compound 2 µM, partner dose 1 µM) | 46.9 | 46.4 | 60.2 | 90.4 | 53.1 | 39.8 | 58.4 | 54.9 | 42.6 | 67.6 | 47.4 | 61.5 | 57.5 | 54 | 58.4 | 41.2 | 68.6 | 54.2 | 59.6
5 | O=C(O)[C@@H]1[O][Sb](=[O])([O][Sb]2(=[O])[O][C@H]([C@H](O)CO)[C@H](O)[C@H](C(=O)O)[O]2)[O][C@H]([C@H](O)CO)[C@@H]1O (stereo partly drawn) [stibogluconate] + O=C(Nc1ccccc1)c1cc([N+](=O)[O-])ccc1Cl [GW9662] (first compound 10 µM, partner dose 10 µM) | 94.8 | 121 | 102 | 88.1 | 83.1 | 89.7 | 90.3 | 69.8 | 85.4 | 104 | 78.7 | 105 | 93.2 | 109 | 98.8 | 86 | 82.4 | 92 | 96.7
6 | O=C(O)c1ccc2c(c1)nc(Nc1cccc(Cl)c1)c1ccncc12 + COC(=O)c1sccc1S(=O)(=O)Nc1ccc(Nc2ccccc2)cc1OC [GSK0660] (first compound 2 µM, partner dose 5 µM) | 67 | 76.6 | 93.8 | 117 | 66.6 | 58.9 | 51.9 | 92.1 | 76.7 | 82.2 | 89 | 93.4 | 80.1 | 86.6 | 85.9 | 80.1 | 97.3 | 102 | 71.7
7 | O=C(Nc1cc(C(F)(F)F)cc(C(F)(F)F)c1)c1cc(Cl)ccc1O + O=S(=O)(c1ccccc1)N(CC(F)(F)F)c1ccc(C(O)(C(F)(F)F)C(F)(F)F)cc1 [T0901317] (first compound 0.08 µM, partner dose 7 µM) | 58.7 | 64.2 | 58.3 | 78.1 | 94.9 | 62.1 | 75.3 | 66.4 | 73.5 | 91.7 | 67.9 | 96.2 | 76.8 | 57.9 | 57.2 | 78.7 | 85.4 | 77.3 | 70.4
8 | O=C(O)[C@@H]1[O][Sb](=[O])([O][Sb]2(=[O])[O][C@H]([C@H](O)CO)[C@H](O)[C@H](C(=O)O)[O]2)[O][C@H]([C@H](O)CO)[C@@H]1O (stereo partly drawn) [stibogluconate] + CCCCCCCCCCCC1=C(O)C(=O)C=C(O)C1=O [Embelin] (first compound 10 µM, partner dose 6 µM) | 60.4 | 75.1 | 70 | 86 | 95 | 61.5 | 94.7 | 89.7 | 105 | 37.7 | 96.1 | 96 | 103 | 101 | 89.1 | 80.6 | 81.7 | 69.7 | 85
9 | O=C(Nc1cc(C(F)(F)F)cc(C(F)(F)F)c1)c1cc(Cl)ccc1O + COc1ccc(-c2ccc3c(N4CCOCC4)nc(N4C[C@@H](C)O[C@@H](C)C4)nc3n2)cc1CO [KU0063794] (first compound 0.08 µM, partner dose 0.1 µM) | 76.4 | 76 | 87.3 | 86.5 | 110 | 77.9 | 79.9 | 75.9 | 78.3 | 105 | 85.7 | 82.9 | 88.6 | 89.5 | 84.7 | 76 | 77.7 | 93.9 | 76.4
10 | O=C(O)c1ccc2c(c1)nc(Nc1cccc(Cl)c1)c1ccncc12 + CCN(CC)CCCCNc1ncc2cc(-c3cc(OC)cc(OC)c3)c(NC(=O)NC(C)(C)C)nc2n1 [PD173074] (first compound 2 µM, partner dose 0.5 µM) | 78.5 | 75.1 | 101 | 89.9 | 72.3 | 65.1 | 67.5 | 83.8 | 88.2 | 85.1 | 91.5 | 86.4 | 96.4 | 86.5 | 109 | 87.4 | 97.3 | 101 | 88.6
11 | O=C(O)c1ccc2c(c1)nc(Nc1cccc(Cl)c1)c1ccncc12 + N#Cc1c(O)c2c(-c3ccc(-c4ccccc4O)cc3)csc2[nH]c1=O [A769662] (first compound 2 µM, partner dose 10 µM) | 76.9 | 82.9 | 82.1 | 111 | 57.3 | 62.3 | 75.9 | 75.9 | 93.9 | 84.9 | 95.3 | 96.1 | 79.8 | 97.9 | 110 | 92 | 88 | 111 | 85.7
12 | O=C(Nc1cc(C(F)(F)F)cc(C(F)(F)F)c1)c1cc(Cl)ccc1O + N#Cc1c(O)c2c(-c3ccc(-c4ccccc4O)cc3)csc2[nH]c1=O [A769662] (first compound 0.08 µM, partner dose 10 µM) | 100 | 101 | 81.4 | 82.2 | 128 | 82.3 | 91.5 | 88.9 | 125 | 115 | 87.1 | 117 | 109 | 91.3 | 89.2 | 67.3 | 96.6 | 105 | 79.2

Source: the supplement of paper PMC4604168 (melanoma cell lines)
